Assay results taken from a compilation of properties of binary mixtures (doi:10.1016/j.molliq.2020.112856).
The densities may have been worked out from excess volumes.

Experiment: xn = mol fraction of the nth substance listed
Conditions: 100 kPa

CC[n+]1ccn(CCOC)c1.N#C[S-] + CCO
mass density [kg/m3]
Conditions | x1 = 0.1 | x1 = 0.1999 | x1 = 0.3002 | x1 = 0.3995 | x1 = 0.5001 | x1 = 0.6 | x1 = 0.7 | x1 = 0.797 | x1 = 0.8964 | x1 = 1
288.15 K | 894.2 | 958.9 | 1004.7 | 1038.6 | 1061.1 | 1085 | 1102.2 | 1116.8 | 1128.8 | 1139.5
293.15 K | 890.3 | 955.2 | 1001.1 | 1035.1 | 1057.6 | 1081.6 | 1098.9 | – | 1125.5 | –
298.15 K | – | – | 997.5 | 1031.6 | – | 1078.2 | 1095.5 | 1110.2 | – | 1133
303.15 K | 882.4 | 947.7 | 993.9 | 1028.1 | 1050.8 | 1074.9 | 1092.2 | 1107 | 1119 | –
308.15 K | – | 944 | 990.4 | 1024.7 | 1047.4 | 1071.5 | 1088.9 | 1103.7 | 1115.7 | 1126.5
313.15 K | 874.5 | 940.3 | 986.8 | 1021.2 | – | 1068.2 | – | 1100.4 | – | 1123.3
318.15 K | 870.5 | 936.5 | 983.2 | 1017.8 | 1040.6 | 1064.9 | 1082.3 | 1097.2 | 1109.3 | 1120.1

CCO + CC[n+]1ccn(CCOC)c1.N#C[S-]
x2 = 0
Conditions | mass density [kg/m3]
288.15 K | 793.9
293.15 K | 789.7
298.15 K | 785.4
303.15 K | 781.1
308.15 K | 776.7
313.15 K | 772.3
318.15 K | 767.9
